# In PubChem BioAssay AID588795 (National Center for Advancing Translational Sciences (NCATS), 2011):
# Screen size: about 390,000 compounds; about 1,400 (0.36%) were called active. Inconclusive means that the source gave no clear call. Such entries were picked first, then a sample of the others. The call rests on the fitted dose curve; in most records, active means well fitted inhibition curve with a large enough effect; inconclusive means small, poorly fitted or top-dose-only effect; inactive means no such curve, though single readings can be large or run the other way. Potencies beside an inconclusive call are fits to weak or partial responses and may not hold up.
# Molecular target: Flap endonuclease 1 (Homo sapiens) (UniProt P39748)
# Sequence of UniProt P39748 (P39748 whole entry, looked up): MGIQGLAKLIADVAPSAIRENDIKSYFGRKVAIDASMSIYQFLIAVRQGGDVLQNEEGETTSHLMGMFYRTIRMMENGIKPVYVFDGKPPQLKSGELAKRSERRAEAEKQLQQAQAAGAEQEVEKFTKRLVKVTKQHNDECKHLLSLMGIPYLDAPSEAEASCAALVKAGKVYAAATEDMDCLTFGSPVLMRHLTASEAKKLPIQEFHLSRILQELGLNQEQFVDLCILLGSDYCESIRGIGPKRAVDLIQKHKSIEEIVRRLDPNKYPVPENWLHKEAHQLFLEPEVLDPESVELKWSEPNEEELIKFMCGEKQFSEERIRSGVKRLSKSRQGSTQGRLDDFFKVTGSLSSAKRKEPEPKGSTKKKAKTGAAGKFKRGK
# Test: qHTS Assay for the Inhibitors of Human Flap endonuclease 1 (FEN1). Further: nearly all actives have a fitted effect of over 65% in size.
# Settings: Recombinant FEN1 flap cleavage, fluorescence, 15 min; series mostly up to 114 µM; activity change, negative = inhibition: at the top concentration
# Outline: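 With each library titrated from low to high concentration, compounds met 10 nM FEN1 for 15 min at room temperature before 50 nM substrate was added; readings at 0 and 15 min fed four-parameter Hill curve fits.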
# On the % scale 0 is the no-effect control and ±100 the full control effect; potency means the concentration at half of the fitted maximal effect; tags describe the fitted curve by direction and shape.
Structure (SMILES),"activity change, negative = inhibition",Potency
COc1ccc(N(Cc2cccs2)C(=O)c2ccco2)cc1,inactive: 3.71%,–
COc1ccccc1N1CCN(C(=O)COc2ccc(C)cc2Br)CC1,inactive: -21.3%,–
COc1ccc2nc(C)cc(N/N=C/c3ccccc3)c2c1,–,active: 35.5 µM
CSc1ccc(/C=N/Nc2cccc(C(=O)O)c2)cc1,–,active: 22.4 µM
COc1ccc(OC)c(NC(=O)c2c(NCc3ccc(C)o3)sc3c2CCCCC3)c1,–,"inconclusive: 79.4 µM [inhibitor, partial curve]"
CCN(CC)C(=O)CSc1nc2c(sc(=S)n2-c2ccccc2)c(=O)n1-c1ccc(OC)cc1OC,–,"inconclusive: 79.4 µM [inhibitor, partial curve, poor fit]"
Cc1ccc(N=Nc2c(N)nn3c(N)c(C#N)c(C)nc23)cc1,–,"inconclusive: 79.4 µM [inhibitor, single point]"
O=[N+]([O-])c1cccc(-c2cc(-c3cc(Br)ccc3O)[nH]n2)c1,–,"inconclusive: 79.4 µM [inhibitor, partial curve, poor fit]"
Cc1cc(Nc2ccccc2)n(-c2nc3ccccc3[nH]2)n1,–,"inconclusive: 56.2 µM [inhibitor, partial curve, poor fit]"
COc1cccc(CNC(=O)C2CCN(S(=O)(=O)c3ccccc3)CC2)c1,inactive: 5.69%,–
C[C@@H]1[C@H](c2ccccc2)OCCS(=O)(=O)N1Cc1ccc(F)cc1,inactive: -18.5%,–
COC(=O)C(N)Cc1ccc(Cl)cc1 (stereo unspecified),–,"inconclusive: 8.44 µM [inhibitor, single point]"
CCOC(=O)/C=C(\C)Sc1cc(=O)oc2ccccc12,inactive: -19.3%,–
COc1cccc(Nc2nc(N)c([N+](=O)[O-])c(NCc3ccco3)n2)c1,–,"inconclusive: 50.1 µM [inhibitor, partial curve]"
O=C1Nc2cc(C(=O)NCCCN3CCCC3)ccc2S/C1=C\c1ccccc1,–,"inconclusive: 35.5 µM [inhibitor, full curve]"
COC(=O)c1c(SC)nc2ccccc2c1OCc1ccc(C)cc1C,inactive: 13.9%,–
CCN(CC)c1ccccc1/C=C/[n+]1ccc(CCCCI)c2ccccc21,–,"inconclusive: 25.1 µM [inhibitor, partial curve]"
COc1ccc(/C=N/NC(=O)c2ccc(CN3C(=O)c4cccc5cccc3c45)cc2)cc1O,–,"inconclusive: 7.94 µM [inhibitor, partial curve, poor fit]"
CNc1c(C(=O)O)ccc2c1C(=O)c1ccccc1C2=O,–,"inconclusive: 35.5 µM [inhibitor, full curve]"
CN(C)c1ccc(C=Nc2ccc(/C=C/c3ccnc4ccccc34)cc2)cc1,–,"inconclusive: 50.1 µM [inhibitor, partial curve, poor fit]"
COc1cc2nc(C3CCC3)n(NC(=O)C3CCC3)c(=O)c2cc1OC,inactive: 5.09%,–
COc1ccccc1NC(=O)CSCc1cc(=O)c2cccc(Cl)c2[nH]1,inactive: -2.72%,–
O=C1Nc2ccccc2C(=O)C1(Cl)Cc1ccccc1 (stereo unspecified),inactive: 6.44%,–

Structure (SMILES),"activity change, negative = inhibition",Potency
CNc1ccc(Br)cc(C(=O)/C=C/c2cccc(Cl)c2Cl)c1=O,–,"inconclusive: 50.1 µM [inhibitor, partial curve]"
Clc1ccc2[nH]c3c(N4CCC5(CC4)OCCO5)ncnc3c2c1,–,"inconclusive: 56.2 µM [inhibitor, partial curve, poor fit]"
CN(C)c1cccc(C(=O)OCc2cc(=O)oc3cc(O)ccc23)c1,–,"inconclusive: 89.1 µM [inhibitor, single point]"
Cc1cc2c(c(=O)o1)C(c1ccc([N+](=O)[O-])o1)C(C#N)=C(N)O2 (stereo unspecified),–,"inconclusive: 70.8 µM [inhibitor, partial curve]"
COc1ccc(C)cc1NC(=O)Cn1nc(N2CCN(c3ccccc3OC)CC2)ccc1=O,inactive: -8.8%,–
COc1ccc2sc(-c3ccc(S(C)(=O)=O)cc3)c(C#Cc3cncn3C)c2c1,–,"inconclusive: 50.1 µM [inhibitor, partial curve, poor fit]"
COc1ccc(C2CC(=O)CCN2S(=O)(=O)c2ccc(C)cc2)cc1 (stereo unspecified),–,"inconclusive: 89.1 µM [inhibitor, partial curve, poor fit]"
COc1ccc(OC)c(C2CC(=O)N3CN(c4cccc(Cl)c4)CSC3=C2C#N)c1 (stereo unspecified),–,"inconclusive: 89.1 µM [inhibitor, single point]"
Cc1cc(C(=O)CCl)c(C)n1Cc1ccco1,inactive: -3%,–
CCc1oc2ccccc2c1C(=O)c1cc(Br)c(O)c(Br)c1,inactive: 1.81%,–
CCOc1ccc2[nH]c3c(NCCO)ncnc3c2c1,–,"inconclusive: 70.8 µM [inhibitor, partial curve, poor fit]"
CCC(=O)c1ccc(OCC(=O)O)c(OC)c1,inactive: 10.1%,–
COCCn1c(CCC(=O)Nc2ccc(C)c(Cl)c2)nc2cccnc21,inactive: 16.1%,–
COc1cc(SSc2cc(OC)cc([N+](=O)[O-])c2N)c(N)c([N+](=O)[O-])c1,–,"inconclusive: 89.1 µM [inhibitor, single point]"
COc1cccc(-c2nc(NCCN3CCOCC3)c3ccccc3n2)c1O,–,active: 39.8 µM
C[n+]1c(/C=C/c2ccc(F)cc2)ccc2ccccc21,–,"inconclusive: 50.1 µM [inhibitor, partial curve, poor fit]"
COc1ccc(Nc2nc(NCC3CCCO3)c3ccccc3n2)c(OC)c1 (stereo unspecified),–,"inconclusive: 44.7 µM [inhibitor, partial curve]"
O=C(NCCN1CCOCC1)c1ccc(/C=C2\Sc3ccccc3N(Cc3ccccc3F)C2=O)cc1,–,"inconclusive: 44.7 µM [inhibitor, partial curve, poor fit]"
CC1=NOC(=O)/C1=C\c1ccc(-c2ccc(Br)cc2)o1,–,"inconclusive: 79.4 µM [inhibitor, single point]"
Cc1cc[n+](-c2ccccc2)c2ccccc12,inactive: 12.5%,–
COc1ccc(/C=N/NC(=O)c2nn(-c3ccc(C)c(C)c3)c(=O)c3ccccc23)cc1,inactive: -0.57%,–
O=C1c2cccc3cccc(c23)C(=O)N1CC1CCN(CC(O)COc2ccc3ccccc3c2)CC1 (stereo unspecified),inactive: -7.98%,–
CC(C)(C)n1ncc2c(=O)n(Cc3c(F)cc(Cl)cc3F)cnc21,inactive: -15.5%,–
